# Results: the supplement of paper PMC8728848
# The list shows a part of the results.
# B1: Nc3LysM (protein)
# chain: QFTVPPDTTAEPNTIKTCTWWHVAGSGDSCTSIASTYGITSEQFARWDMETTDSPKNPSVATACKLTVGNSYCIENNFGQDDPPTPSISSSTLIGTATTSTTASTTTGNGISTPTPIQEGMETATTTTSSGNGITTPTPTQAGMETVGNCDRFHLVKSGDQCGTIASTYGITLANFYSWNPAVGTSCQSLWLDTYVCVRTIGFVPPKTTTTTTKKPTSTTSAGGVATPTPTQPGMETVSGCKKFHKGRGNVSTVASGDQCGTIATRYGISLANFYSWNPAVGSSCQTLWLDYYVCVGR
# Assays:
# Assay in all cases: glycan array binding signal (z-score within array); higher = stronger binding
# Conditions in all cases: glycan notation: IUPAC condensed, linker removed
# [1] = target: Neu5Ac(a2-3)Gal(b1-3)GlcNAc(b1-2)Man
# How it was run: (§1)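 Glycan array data were curated from 3228 arrays in the Consortium for Functional Glycomics database and kept only where the protein sequence was available. Glycan names were converted to IUPAC-condensed notation, and columns mapping to the same glycan were averaged. The binding signal is a within-array Z-score, averaged across arrays of the same protein sequence at different concentrations or buffers and across linkers. Negative Z-scores can be read as non-binding.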
# [2] = target: Neu5Ac(a2-3)Gal(b1-3)GlcNAc(b1-2)Man(a1-3)[GlcNAc(b1-4)][Neu5Ac(a2-3)Gal(b1-3)GlcNAc(b1-2)Man(a1-6)]Man(b1-4)GlcNAc(b1-4)GlcNAc
# How it was run: as §1
# [3] = target: Neu5Ac(a2-3)Gal(b1-3)GlcNAc(b1-2)Man(a1-3)[Neu5Ac(a2-3)Gal(b1-3)GlcNAc(b1-2)Man(a1-6)]Man(b1-4)GlcNAc(b1-4)GlcNAc
# How it was run: as §1
# [4] = target: Neu5Ac(a2-3)Gal(b1-3)GlcNAc(b1-2)[Neu5Ac(a2-3)Gal(b1-3)GlcNAc(b1-4)]Man(a1-6)[Neu5Ac(a2-3)Gal(b1-3)GlcNAc(b1-2)Man(a1-3)]Man(b1-4)GlcNAc(b1-4)GlcNAc
# How it was run: as §1
# [5] = target: Neu5Ac(a2-3)Gal(b1-3)GlcNAc(b1-3)Gal(b1-3)GlcNAc
# How it was run: as §1
# [6] = target: Neu5Ac(a2-3)Gal(b1-3)GlcNAc(b1-3)Gal(b1-4)GlcNAc
# How it was run: as §1
# [7] = target: Neu5Ac(a2-3)Gal(b1-3)GlcNAc(b1-3)GalNAc
# How it was run: as §1
# [8] = target: Neu5Ac(a2-3)Gal(b1-3)GlcNAc(b1-6)GalNAc
# How it was run: as §1
# [9] = target: Neu5Ac(a2-3)Gal(b1-3)GlcNAc6S
# How it was run: as §1
# [10] = target: Neu5Ac(a2-3)Gal(b1-3)[Fuc(a1-4)]GlcNAc
# How it was run: as §1
# [11] = target: Neu5Ac(a2-3)Gal(b1-3)[Fuc(a1-4)]GlcNAc(b1-3)Gal(b1-3)[Fuc(a1-4)]GlcNAc
# How it was run: as §1
# [12] = target: Neu5Ac(a2-3)Gal(b1-3)[Fuc(a1-4)]GlcNAc(b1-3)Gal(b1-4)[Fuc(a1-3)]GlcNAc
# How it was run: as §1
# [13] = target: Neu5Ac(a2-3)Gal(b1-3)[GlcNAc(b1-6)]GalNAc
# How it was run: as §1
# [14] = target: Neu5Ac(a2-3)Gal(b1-3)[Neu5Ac(a2-6)]GalNAc
# How it was run: as §1
# [15] = target: Neu5Ac(a2-3)Gal(b1-3)[Neu5Ac(a2-6)]GlcNAc(b1-3)[Fuc(a1-3)[Gal(b1-4)]GlcNAc(b1-6)]Gal(b1-4)Glc
# How it was run: as §1
# [16] = target: Neu5Ac(a2-3)Gal(b1-3)]Neu5Ac(a2-3)Gal(b1-4)]GlcNAc
# How it was run: as §1
# Neu5Ac(a2-3)Gal(b1-4)Glc = target: Neu5Ac(a2-3)Gal(b1-4)Glc
# How it was run: as §1
# [17] = target: Neu5Ac(a2-3)Gal(b1-4)GlcNAc
# How it was run: as §1
# [18] = target: Neu5Ac(a2-3)Gal(b1-4)GlcNAc(b1-2)Man
# How it was run: as §1
# [19] = target: Neu5Ac(a2-3)Gal(b1-4)GlcNAc(b1-2)Man(a1-3)[GlcNAc(b1-4)][Neu5Ac(a2-3)Gal(b1-4)GlcNAc(b1-2)Man(a1-6)]Man(b1-4)GlcNAc(b1-4)GlcNAc
# How it was run: as §1
# [20] = target: Neu5Ac(a2-3)Gal(b1-4)GlcNAc(b1-2)Man(a1-3)[Neu5Ac(a2-3)Gal(b1-4)GlcNAc(b1-2)Man(a1-6)]Man(b1-4)GlcNAc(b1-4)GlcNAc
# How it was run: as §1
# [21] = target: Neu5Ac(a2-3)Gal(b1-4)GlcNAc(b1-2)Man(a1-3)[Neu5Ac(a2-3)Gal(b1-4)GlcNAc(b1-2)Man(a1-6)]Man(b1-4)GlcNAc(b1-4)[Fuc(a1-6)]GlcNAc
# How it was run: as §1
# [22] = target: Neu5Ac(a2-3)Gal(b1-4)GlcNAc(b1-2)Man(a1-3)[Neu5Ac(a2-6)Gal(b1-4)GlcNAc(b1-2)Man(a1-6)]Man(b1-4)GlcNAc(b1-4)GlcNAc
# How it was run: as §1
# [23] = target: Neu5Ac(a2-3)Gal(b1-4)GlcNAc(b1-2)[Neu5Ac(a2-3)Gal(b1-4)GlcNAc(b1-4)]Man(a1-3)[GlcNAc(b1-4)][Neu5Ac(a2-3)Gal(b1-4)GlcNAc(b1-2)[Neu5Ac(a2-3)Gal(b1-4)GlcNAc(b1-6)]Man(a1-6)]Man(b1-4)GlcNAc(b1-4)GlcNAc
# How it was run: as §1
# [24] = target: Neu5Ac(a2-3)Gal(b1-4)GlcNAc(b1-2)[Neu5Ac(a2-3)Gal(b1-4)GlcNAc(b1-4)]Man(a1-3)[GlcNAc(b1-4)][Neu5Ac(a2-3)Gal(b1-4)GlcNAc(b1-4)Man(a1-6)]Man(b1-4)GlcNAc(b1-4)GlcNAc
# How it was run: as §1
# [25] = target: Neu5Ac(a2-3)Gal(b1-4)GlcNAc(b1-2)[Neu5Ac(a2-3)Gal(b1-4)GlcNAc(b1-6)]Man(a1-6)[Neu5Ac(a2-3)Gal(b1-4)GlcNAc(b1-2)Man(a1-3)][GlcNAc(b1-4)]Man(b1-4)GlcNAc(b1-4)GlcNAc
# How it was run: as §1
# [26] = target: Neu5Ac(a2-3)Gal(b1-4)GlcNAc(b1-3)Gal
# How it was run: as §1
# [27] = target: Neu5Ac(a2-3)Gal(b1-4)GlcNAc(b1-3)Gal(b1-3)GlcNAc
# How it was run: as §1
# [28] = target: Neu5Ac(a2-3)Gal(b1-4)GlcNAc(b1-3)Gal(b1-4)GlcNAc
# How it was run: as §1
# [29] = target: Neu5Ac(a2-3)Gal(b1-4)GlcNAc(b1-3)Gal(b1-4)GlcNAc(b1-2)Man(a1-3)[Neu5Ac(a2-3)Gal(b1-4)GlcNAc(b1-3)Gal(b1-4)GlcNAc(b1-2)Man(a1-6)]Man(b1-4)GlcNAc(b1-4)GlcNAc
# How it was run: as §1
# [30] = target: Neu5Ac(a2-3)Gal(b1-4)GlcNAc(b1-3)Gal(b1-4)GlcNAc(b1-3)Gal(b1-4)GlcNAc
# How it was run: as §1
# [31] = target: Neu5Ac(a2-3)Gal(b1-4)GlcNAc(b1-3)Gal(b1-4)GlcNAc(b1-3)Gal(b1-4)GlcNAc(b1-2)Man(a1-3)[Neu5Ac(a2-3)Gal(b1-4)GlcNAc(b1-3)Gal(b1-4)GlcNAc(b1-3)Gal(b1-4)GlcNAc(b1-2)Man(a1-6)]GalNAc
# How it was run: as §1
# [32] = target: Neu5Ac(a2-3)Gal(b1-4)GlcNAc(b1-3)Gal(b1-4)GlcNAc(b1-3)GalNAc
# How it was run: as §1
# [33] = target: Neu5Ac(a2-3)Gal(b1-4)GlcNAc(b1-3)Gal(b1-4)GlcNAc(b1-3)[Neu5Ac(a2-3)Gal(b1-4)GlcNAc(b1-3)Gal(b1-4)GlcNAc(b1-6)]GalNAc
# How it was run: as §1
# [34] = target: Neu5Ac(a2-3)Gal(b1-4)GlcNAc(b1-3)Gal(b1-4)GlcNAc(b1-6)[Gal(b1-3)]GalNAc
# How it was run: as §1
# [35] = target: Neu5Ac(a2-3)Gal(b1-4)GlcNAc(b1-3)Gal(b1-4)[Fuc(a1-3)]GlcNAc
# How it was run: as §1
# [36] = target: Neu5Ac(a2-3)Gal(b1-4)GlcNAc(b1-3)GalNAc
# How it was run: as §1
# [37] = target: Neu5Ac(a2-3)Gal(b1-4)GlcNAc(b1-3)[Neu5Ac(a2-3)Gal(b1-4)GlcNAc(b1-6)]GalNAc
# How it was run: as §1
binder,measurement,setting,value
B1,glycan array binding signal (z-score),[1],-0.137
same,glycan array binding signal (z-score),[2],-0.143
same,glycan array binding signal (z-score),[3],-0.043
same,glycan array binding signal (z-score),[4],0.123
same,glycan array binding signal (z-score),[5],-0.066
same,glycan array binding signal (z-score),[6],0.037
same,glycan array binding signal (z-score),[7],-0.074
same,glycan array binding signal (z-score),[8],-0.193
same,glycan array binding signal (z-score),[9],-0.268
same,glycan array binding signal (z-score),[10],-0.183
same,glycan array binding signal (z-score),[11],-0.02
same,glycan array binding signal (z-score),[12],-0.278
same,glycan array binding signal (z-score),[13],-0.207
same,glycan array binding signal (z-score),[14],0.003
same,glycan array binding signal (z-score),[15],-0.004
same,glycan array binding signal (z-score),[16],-0.035
same,glycan array binding signal (z-score),Neu5Ac(a2-3)Gal(b1-4)Glc,0.196
same,glycan array binding signal (z-score),[17],-0.073
same,glycan array binding signal (z-score),[18],-0.147
same,glycan array binding signal (z-score),[19],0.002
same,glycan array binding signal (z-score),[20],-0.039
same,glycan array binding signal (z-score),[21],-0.216
same,glycan array binding signal (z-score),[22],-0.026
same,glycan array binding signal (z-score),[23],-0.3
same,glycan array binding signal (z-score),[24],-0.276
same,glycan array binding signal (z-score),[25],-0.026
same,glycan array binding signal (z-score),[26],-0.167
same,glycan array binding signal (z-score),[27],-0.112
same,glycan array binding signal (z-score),[28],-0.19
same,glycan array binding signal (z-score),[29],0.059
same,glycan array binding signal (z-score),[30],0.039
same,glycan array binding signal (z-score),[31],-0.068
same,glycan array binding signal (z-score),[32],0.172
same,glycan array binding signal (z-score),[33],0.016
same,glycan array binding signal (z-score),[34],-0.051
same,glycan array binding signal (z-score),[35],-0.097
same,glycan array binding signal (z-score),[36],0.083
same,glycan array binding signal (z-score),[37],-0.004
